Results taken from PMC9648990 (Biochemistry, 2022).

What was measured:
[1] = target: the molecule itself; assay: AUC
[2] = target: the molecule itself; assay: SEC-SAXS

B1: Fusicoccadiene synthase from Phomopsis amygdali (PaFS), full-length (enzyme)
chain: MEFKYSEVVEPSTYYTEGLCEGIDVRKSKFTTLEDRGAIRAHEDWNKHIGPCGEYRGTLGPRFSFISVAVPECIPERLEVISYANEFAFLHDDVTDHVGHDTGEVENDEMMTVFLEAAHTGAIDTSNKVDIRRAGKKRIQSQLFLEMLAIDPECAKTTMKSWARFVEVGSSRQHETRFVELAKYIPYRIMDVGEMFWFGLVTFGLGLHIPDHELELCRELMANAWIAVGLQNDIWSWPKERDAATLHGKDHVVNAIWVLMQEHQTDVDGAMQICRKLIVEYVAKYLEVIEATKNDESISLDLRKYLDAMLYSISGNVVWSLECPRYNPDVSFNKTQLEWMRQGLPSLESCPVLARSPEIDSDESAVSPTADESDSTEDSLGSGSRQDSSLSTGLSLSPVHSNEGKDLQRVDTDHIFFEKAVLEAPYDYIASMPSKGVRDQFIDALNDWLRVPDVKVGKIKDAVRVLHNSSLLLDDFQDNSPLRRGKPSTHNIFGSAQTVNTATYSIIKAIGQIMEFSAGESVQEVMNSIMILFQGQAMDLFWTYNGHVPSEEEYYRMIDQKTGQLFSIATSLLLNAADNEIPRTKIQSCLHRLTRLLGRCFQIRDDYQNLVSADYTKQKGFCEDLDEGKWSLALIHMIHKQRSHMALLNVLSTGRKHGGMTLEQKQFVLDIIEEEKSLDYTRSVMMDLHVQLRAEIGRIEILLDSPNPAMRLLLELLRV
Kd [1]: 330 nM | stoichiometry N [2]: 8
